“And” between values parts separate entries of the source, which are not always exact repeats. Equal entries are not always repeated. About 5,000 (1.2%) of roughly 410,000 compounds were called active. The inconclusive results got no clear call from the source; some entries with a clear call stand among them for comparison. Calls come from the whole dose curve; as a rule, active = well fitted inhibition curve with a large enough effect; inconclusive = small, poorly fitted or top-dose-only effect; inactive = no such curve, though single readings can be large or run the other way. Where the call is inconclusive, the potency comes from a doubtful curve fit.
Experiment: qHTS for Inhibitors of TGF-b; note: nearly all actives have a fitted effect of over 65% in size
Conditions: HepG2 CAGA-GFP TGF-b/SMAD3 reporter, GFP fluorescence, 18 h, TGF-beta stimulated, 500 pg/mL final; series mostly up to 46.1 µM; activity, negative = inhibition: at the top concentration
Summary of the method: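 HEPG2 CAGA-GFP, 1000 cells/well; 2 h settle, 37 C; cpd via pin tool; TGF-b 500 pg/mL final; 18 h, 37 C; GFP imaging ex488/em500-530; %Activity normalised to -TGF-b and +DMSO controls; CRC fit, curve class.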
% is set by controls: 0 for no effect and ±100 for the full control effect; potency is the fitted concentration of half-maximal effect; tags give direction and shape of the fitted curve.

Structure (SMILES)	Potency	activity, negative = inhibition
O=C(/C=N/O)Nc1cccnc1	inconclusive: 25.1 µM [inhibitor, partial curve, poor fit]	
CCOc1ccc(NC(=O)CCN2C(=S)NC(C)(C)CC2C)cc1 (stereo not given)	inconclusive: 3.16 µM [inhibitor, partial curve, poor fit]	
N#CC1=C(N)Oc2cc(O)ccc2C1c1cccnc1 (stereo not given)		inactive: 9.41%
CC(O)CNCCCOc1ccc(Cl)cc1C(C)(C)C (stereo not given)	inconclusive: 28.2 µM [inhibitor, single point]	
O=C(c1ccc(Cl)nc1)N1CCC(Cc2ccccc2)CC1		inactive: -3.37%
Oc1ccccc1/C=N/NC(=S)NC1CC2CC1C1C=CCC21 (stereo not given)	inconclusive: 14.1 µM [inhibitor, partial curve, poor fit]	
COc1ccc2cc(-c3nc(-c4ccc(N(C)C)cc4)no3)c(=O)oc2c1	inconclusive: 5.62 µM [inhibitor, single point]	
Cc1ccc(C)c(CSc2cn(CC(=O)N3CCCC3)c3ccccc23)c1		inactive: 0%
CC/C(C)=N/NC(=O)c1[nH]c2ccc(C)cc2c1-c1ccccc1	inconclusive: 35.5 µM [inhibitor, single point]	
COCCCNC(=O)C1CCCN(S(=O)(=O)c2cccc3nsnc23)C1 (stereo not given)	inconclusive: 15.8 µM [inhibitor, single point]	
c1cc2c(c(CC3CO3)c1CC1CO1)OCCOCCOCCOCCO2 (stereo not given)		inactive: -15%
COc1cc(/C=N/n2c(-c3cc(C)[nH]n3)n[nH]c2=S)cc(OC)c1OC		inactive: -17.7%
O=C(CSc1nnc(-c2csc3c2CCCC3)o1)Nc1ccccc1		inactive: 18.5%
CC(C)(C)c1ccc(OCC(=O)Nc2ccncc2)cc1	inconclusive: 3.16 µM [inhibitor, full curve, poor fit]	
Clc1ccccc1C=NNc1ccccn1	inconclusive: 7.08 µM [inhibitor, partial curve, poor fit]	
O=C1CC(c2ccccc2)Sc2ccccc2N1 (stereo not given)		inactive: 3.95%
CCOC(=O)c1[nH]c2ccccc2c1NC(=O)c1ccc(S(=O)(=O)N(C)C)cc1		inactive: -26.6%
O=C(Nc1ccccc1Cl)C1CCCN(c2ncnc3c2nc2n3CCCCC2)C1 (stereo not given)		inactive: -26.8%
CC(C)C[C@H](NC(=O)c1nc[nH]c1C(=O)NC(c1ccccc1)c1ccccc1)C(=O)OC(C)(C)C	inconclusive: 12.6 µM [inhibitor, partial curve, poor fit]	
Cc1ncc(CO)c(/C=N/NC(=S)Nc2ccc(Cl)c(Cl)c2)c1O	inconclusive: 35.5 µM [inhibitor, single point]	
CCOc1cc(-c2cc(-c3ccc(C)o3)nc(N)c2C#N)ccc1O		inactive: 19.1%
O=[N+]([O-])c1ccc(CSc2nc3ccccc3[nH]2)cc1		inactive: -4.57%
O=[N+]([O-])c1ccc(Sc2cccc[n+]2[O-])c2nonc12	active: 1.26 µM	
COc1ccc(CNc2nc(NCc3ccc(OC)cc3)c3ncn(C4CCCC4)c3n2)cc1	inconclusive: 10 µM [inhibitor, single point]	

Structure (SMILES)	Potency	activity, negative = inhibition
O=C(/C=C/c1cccs1)Nc1nc(-c2ccccc2)cs1		inactive: -27.6%
COc1ccc(C(=O)NCc2ccccc2)cc1Br		inactive: -10.1%
CCOC(=O)C(=CNc1ccc(N2CCOCC2)cc1)C(=O)OCC		inactive: -19.2%
COCCCNC(=S)NNC(=O)c1csc(C)n1		inactive: -1.97%
Cc1ccccc1SCC(=O)N/N=C/c1ccc(F)cc1		inactive: 0%
CC(C)C[C@H](NC(=O)c1nc[nH]c1C(=O)N[C@@H](CC(C)C)C(=O)OCc1ccccc1)C(=O)OCc1ccccc1	inconclusive: 17.8 µM [inhibitor, single point]	
NC(=S)N/N=C\c1ccc(-c2cccc(Cl)c2Cl)o1	inconclusive: 22.4 µM [inhibitor, single point]	
C=CCSc1nc2ccccc2n1S(=O)(=O)c1ccc(Cl)cc1	inconclusive: 6.31 µM [inhibitor, single point]	
CCOC(=O)c1cc(/C(C)=N/OC(=O)c2ccc(C(C)(C)C)cc2)on1		inactive: -20.8%
CCOc1ccccc1NC(=O)C1CCCN(S(=O)(=O)c2cccs2)C1 (stereo not given)	inconclusive: 15.8 µM [inhibitor, partial curve]	
COc1cc2c(C(=O)N3CCN(c4ccc(F)cc4)CC3)cn(CC(C)C)c(=O)c2cc1OC	inconclusive: 12.6 µM [inhibitor, single point]	
COc1ccc(NS(=O)(=O)c2ccc(NC(=O)c3ccc(N(C)S(C)(=O)=O)cc3)cc2)c(OC)c1	inconclusive: 12.6 µM [inhibitor, partial curve, poor fit]	
CC1=C(C#N)C(c2ccoc2)C(C(=O)OCc2ccccc2)=C(N)S1 (stereo not given)	inconclusive: 35.5 µM [inhibitor, single point]	
CC(Cc1ccc(Cl)cc1)N1CCC(n2nccc2NC(=O)C2CCCC2)CC1 (stereo not given)	inconclusive: 7.08 µM [inhibitor, full curve, poor fit]	
C/C(=N\Nc1ccc2nncn2n1)c1ccco1		inactive: -13%
CSc1nn(CC(=O)Nc2ccc(C)cc2C)c(N)c1S(=O)(=O)c1ccc(Cl)cc1	inconclusive: 22.4 µM [inhibitor, single point]	
COc1cccc(/C=C2\SC(=S)N(N3CCOCC3)C2=O)c1OC	inconclusive: 8.91 µM [inhibitor, partial curve]	
COc1ccccc1/C=N/NC(=O)c1ccc(C)nc1		inactive: -26.6%
Cc1ccc(NS(=O)(=O)c2ccc3nc(-c4ccccc4)[nH]c3c2)cc1Cl	inconclusive: 22.4 µM [inhibitor, single point]	
O=C(N/N=C/c1ccc([N+](=O)[O-])cc1)c1ccc(COc2ccccc2-c2ccccc2)cc1	inconclusive: 6.31 µM [inhibitor, single point]	
Cc1noc2ncnc(NCCc3ccccc3)c12	inconclusive: 5.01 µM [inhibitor, full curve]	
COCCN(C(=O)c1ccco1)c1nnc(-c2ccc(OC)c(OC)c2)s1		inactive: 3.49%
CCC12CN3CC(CC)(CN(C1)C3c1c[nH]c3ccccc13)C2=O (stereo not given)	inconclusive: 3.98 µM [inhibitor, full curve, poor fit]	
O=C(Nc1cc(S(=O)(=O)Nc2ccc(Cl)cc2)ccc1N1CCCCC1)c1ccc(F)cc1	inconclusive: 15.8 µM [inhibitor, single point]	

Structure (SMILES)	Potency	activity, negative = inhibition
CCO[C@@H]1OC(C(=O)O)=C[C@H](c2ccc(Br)cc2)[C@H]1CCCO		inactive: -0.188%
COc1ccc(/C=C(\C#N)C(=O)NCc2ccccc2)cc1O		inactive: -0.659%
CC1=NOC(=O)/C1=C\c1ccc(-c2cccc(Cl)c2)o1	inconclusive: 35.5 µM [inhibitor, single point]	
Cc1nc(N2CCCCC2)c2c(C)c(C(=O)Nc3ccc4c(c3)OCCO4)sc2n1	inconclusive: 20 µM [inhibitor, single point]	
N=C(N)SCc1ccc(Cl)cc1Cl	inconclusive: 35.5 µM [inhibitor, single point]	
Cc1ccc(S(=O)(=O)N2[C@@H](c3ccc(F)cc3)C(C(=O)O)=CC[C@H]2c2ccc(C(C)C)cc2)cc1	inconclusive: 8.91 µM [inhibitor, partial curve, poor fit]	
COCCCNC(=O)C1CCN(Cc2cc3ccccc3n2Cc2cccc(Cl)c2)CC1	inconclusive: 20 µM [inhibitor, partial curve, poor fit]	
Cc1ccc(S(=O)(=O)Nc2ccc(Br)cc2/C=N/n2cnnc2)cc1	inconclusive: 35.5 µM [inhibitor, single point]	
CCOc1ccc(N(CC(=O)Nc2c(C)n(C)n(-c3ccccc3)c2=O)S(=O)(=O)c2ccccc2)cc1		inactive: -17.3%
CCOC(=O)c1sc2ccccc2c1OC(=O)c1ccccc1OC	inconclusive: 14.1 µM [inhibitor, partial curve, poor fit]	
O=C(COC(=O)C1CCC1)NCCc1ccc(Cl)cc1Cl		inactive: -22.9%
COc1ccc(N2CCN(C(=O)c3ccc4c(c3)CCN4S(=O)(=O)c3ccccc3)CC2)cc1	inconclusive: 22.4 µM [inhibitor, single point] and inconclusive: 11.2 µM [inhibitor, partial curve]	
O=C(NCc1cnc2ccccn12)C1CCC(=O)N(Cc2ccccc2F)C1 (stereo not given)	inconclusive: 11.2 µM [inhibitor, partial curve, poor fit]	
CC(C)C(=O)Nc1cccc(-c2nc3ccccc3o2)c1	inconclusive: 12.6 µM [inhibitor, partial curve, poor fit]	
CCN(CC)CCNC(=O)c1ccc(NC(=O)c2cccc(S(=O)(=O)Nc3ccc(C)cc3)c2)cc1		inactive: -19%
COC(=O)c1sccc1S(=O)(=O)N(CC(=O)NCc1ccc(C)cc1)c1ccccc1	inconclusive: 35.5 µM [inhibitor, single point]	
CCc1cc(=O)n2[nH]c(C)c(-c3ccccc3OC)c2n1		inactive: 12.2%
N#Cc1c[nH]n2c(NC3CCCC3)c(-c3cccc(Br)c3)nc12	inconclusive: 20 µM [inhibitor, single point]	
CC(=O)c1ccc(OCC(O)CN2CCN(S(=O)(=O)c3c(C)c(C)cc(C)c3C)CC2)cc1 (stereo not given)	inconclusive: 22.4 µM [inhibitor, single point]	
COc1ccc(-c2cc(C(=O)NC(Cc3cc4ccccc4[nH]3)C(=O)O)c(C)o2)cc1OC (stereo not given)	inconclusive: 6.31 µM [inhibitor, single point]	
Cc1nc(/N=C(\N)NC(=O)c2ccccc2)nc2ccccc12	inconclusive: 22.4 µM [inhibitor, single point]	
CC(C)CCn1c(=O)c2cccnc2n(CC(=O)Nc2ccccc2)c1=O		inactive: -10%

From PubChem BioAssay AID588855 (National Center for Advancing Translational Sciences (NCATS), 2011)
